About 2,200 (0.71%) of roughly 310,000 compounds showed an effect of 50% or more. Effects have a minus sign here. This is one part of the list.

Sequence of human ether-à-go-go-related gene (hERG) potassium channel (Q12809 whole entry, looked up): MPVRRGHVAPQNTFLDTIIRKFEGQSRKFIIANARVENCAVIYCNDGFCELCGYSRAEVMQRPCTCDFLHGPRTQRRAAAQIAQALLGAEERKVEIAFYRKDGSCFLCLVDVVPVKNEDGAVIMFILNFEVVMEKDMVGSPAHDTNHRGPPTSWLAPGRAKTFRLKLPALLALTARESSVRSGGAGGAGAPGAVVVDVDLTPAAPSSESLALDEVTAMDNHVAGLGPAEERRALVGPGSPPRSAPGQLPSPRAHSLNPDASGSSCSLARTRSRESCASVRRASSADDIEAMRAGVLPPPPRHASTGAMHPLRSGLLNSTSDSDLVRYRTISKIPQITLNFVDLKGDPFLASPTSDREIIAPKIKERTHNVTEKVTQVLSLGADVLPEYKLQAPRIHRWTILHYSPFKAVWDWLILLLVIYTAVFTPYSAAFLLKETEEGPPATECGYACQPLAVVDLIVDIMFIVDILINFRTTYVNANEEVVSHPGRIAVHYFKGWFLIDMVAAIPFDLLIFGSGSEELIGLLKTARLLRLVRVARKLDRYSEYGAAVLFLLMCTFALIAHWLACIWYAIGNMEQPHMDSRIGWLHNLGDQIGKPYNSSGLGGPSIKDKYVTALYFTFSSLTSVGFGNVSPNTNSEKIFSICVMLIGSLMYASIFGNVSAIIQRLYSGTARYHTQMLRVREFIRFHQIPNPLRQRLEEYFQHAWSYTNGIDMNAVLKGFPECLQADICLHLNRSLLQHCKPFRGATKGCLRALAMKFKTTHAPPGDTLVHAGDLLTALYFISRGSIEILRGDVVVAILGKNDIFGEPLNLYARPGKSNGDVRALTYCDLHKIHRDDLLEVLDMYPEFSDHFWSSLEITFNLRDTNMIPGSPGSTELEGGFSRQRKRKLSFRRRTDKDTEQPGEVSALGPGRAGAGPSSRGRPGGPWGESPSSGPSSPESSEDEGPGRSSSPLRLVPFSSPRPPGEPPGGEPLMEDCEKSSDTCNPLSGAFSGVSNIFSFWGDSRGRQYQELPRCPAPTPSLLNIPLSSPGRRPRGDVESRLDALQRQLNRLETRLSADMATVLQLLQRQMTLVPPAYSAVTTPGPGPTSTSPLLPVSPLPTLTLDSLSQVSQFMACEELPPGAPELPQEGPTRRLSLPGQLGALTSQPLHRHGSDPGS

This experiment addresses human ether-à-go-go-related gene (hERG) potassium channel (human, UniProt Q12809). As to the kind of experiment: primary screen, population patch clamp on CHO cells stably expressing hERG.
As for `Cc1cc(NC(=O)CCCC(=O)Nc2ccc(F)cc2)no1`, the “hERG current change (%, negative = inhibition) at 1uM” value worked out at 2.13%.
Take `CC(OC(=O)c1ccc(C(C)(C)C)cc1)C(=O)NC1CCCCC1C` (stereo not drawn): the “hERG current change (%, negative = inhibition) at 1uM” value is 17.2%.
Regarding `CCc1ccc(-c2cnc3nc[nH]c(=O)c3n2)cc1`, the “hERG current change (%, negative = inhibition) at 1uM” value was 11.5%.
Consider `CN(C)c1ccc(C(=O)/C=C/c2ccccc2)cc1`, for which the “hERG current change (%, negative = inhibition) at 1uM” value stood at 8.84%.
Consider `CCOC(=O)c1c(CN(CC)CC)n(C)c2cc(Br)c(O)cc12.Cl`, for which the “hERG current change (%, negative = inhibition) at 1uM” value was -45%.
Take `COC(=O)c1cccnc1SCc1ccccc1`: the “hERG current change (%, negative = inhibition) at 1uM” value was -4.64%.
Take `CCc1nnc(NC(=O)C2CCC2)s1`: the “hERG current change (%, negative = inhibition) at 1uM” value was 3.46%.
Take `O=c1c2[nH]c3ccccc3c2ncn1Cc1ccco1`: the “hERG current change (%, negative = inhibition) at 1uM” value was determined as 19.8%.
Regarding `COC(=O)c1ccc(NS(=O)(=O)c2cc3c4c(c2)CCN4C(=O)CC3)cc1`, the “hERG current change (%, negative = inhibition) at 1uM” value came out at 3.99%.
Regarding `COc1cc(C(=S)N2CCN(c3ccccc3Cl)CC2)cc(O)c1O`, the “hERG current change (%, negative = inhibition) at 1uM” value came out at 4.08%.
As to `COc1cc(NC(=O)Nn2cnnc2)cc(OC)c1OC`, the “hERG current change (%, negative = inhibition) at 1uM” value was 11.7%.
Regarding `COC(=O)c1ccccc1NC(=O)CSc1nnnn1CC(=O)O`, the “hERG current change (%, negative = inhibition) at 1uM” value worked out at 14.2%.
For the compound `N/C(CCN1CCOCC1)=N/O`, the “hERG current change (%, negative = inhibition) at 1uM” value was 16.7%.
Take `O=C1NCCCC1C(=O)N/N=C/c1cccc(O)c1` (stereo not drawn): the “hERG current change (%, negative = inhibition) at 1uM” value is recorded as 15.1%.
Consider `CN(C(=O)CCS(=O)(=O)c1ccc2c(c1)oc(=O)n2C)C1CCCCC1`, for which the “hERG current change (%, negative = inhibition) at 1uM” value was found to be 6.38%.
Take `Cc1ccc(C)c(C(=O)COC(=O)c2nn(C)c(=O)c3ccccc23)c1`: the “hERG current change (%, negative = inhibition) at 1uM” value was -3.71%.
On to `O=C1CCC(C(=O)Nc2cc(C(F)(F)F)ccc2-n2cncn2)=NN1`, for which the “hERG current change (%, negative = inhibition) at 1uM” value amounted to 7.98%.
To `N#Cc1c(N2C(=O)c3ccc(C(=O)O)cc3C2=O)sc2c1CCCC2` belongs 18.6%.
Take `Nc1nc(SCC(=O)N2CCCc3ccccc32)[nH]c(=O)c1-c1ccccc1`: the “hERG current change (%, negative = inhibition) at 1uM” value came out at 11.4%.
Turning to `O=C1NCCCc2c1oc1ccc(O)cc21`, the “hERG current change (%, negative = inhibition) at 1uM” value turned out to be 20.2%.
`CCOc1ccccc1N(CC(=O)Nc1ccccc1)S(=O)(=O)c1ccccc1`: the “hERG current change (%, negative = inhibition) at 1uM” value is 12.9%.
`O=S(=O)(NCc1ccc(F)cc1)c1ccc(-n2cccn2)cc1`: the “hERG current change (%, negative = inhibition) at 1uM” value is given as 5.5%.
With `CC(=O)c1c(C)[nH]c(C(=O)Nc2ccc(S(=O)(=O)N(C)C)cc2)c1C`, the “hERG current change (%, negative = inhibition) at 1uM” value was 11.4%.
On to `COc1ccc(C)cc1S(=O)(=O)N(CC(=O)N1CCOCC1)c1cc(C)cc(C)c1`, for which the “hERG current change (%, negative = inhibition) at 1uM” value is on record as -52%.
The same measure for `CS(=O)(=O)CCSc1ncccc1C(=O)NCc1cccs1`: -0.093%; for `COC(=O)C1=C(C)NC(C)=C(C(=O)OC)C1c1cc2ccc(C)cc2[nH]c1=O`: 12.6%.
With `COc1ccc(CCNC(=O)[C@H](C)N2C(=O)N3CCc4c([nH]c5ccccc45)[C@@]3(C)C2=O)cc1OC`, the “hERG current change (%, negative = inhibition) at 1uM” value amounted to 8.53%.
Consider `Nc1c2c(nc3c1CCCC3)CCCC2.O=C(O)c1cc[nH]c(=O)c1`, for which the “hERG current change (%, negative = inhibition) at 1uM” value turned out to be 3.86%.
`COc1cccc(C(=O)NCc2ccco2)c1`: the “hERG current change (%, negative = inhibition) at 1uM” value was 14.6%.
The same measure for `O=C(/C=C/c1ccccc1Cl)Nc1cccnc1`: 14.7%; for `CCOC(=O)c1cc2sc(C)cc2n1CC(=O)N(CC)CC`: 5.68%.
For the compound `Cc1occc1C(=O)NCc1ccco1`, the “hERG current change (%, negative = inhibition) at 1uM” value is 20.2%.
For `COc1ccc2oc(=O)c(-c3nnc(N)s3)cc2c1`, the “hERG current change (%, negative = inhibition) at 1uM” value amounted to 8.95%.
Take `O=C(COC(=O)Cc1ccccc1F)Nc1cccc(S(=O)(=O)NC2=NCCCCC2)c1`: the “hERG current change (%, negative = inhibition) at 1uM” value was -5.87%.
To `CCN(CC)CCNC(=O)C1CCC(=O)N(c2ccc(OC)cc2)C1c1ccc(F)cc1` (stereo not drawn) belongs 9.84%.
`Cc1ccn2c(/C=N/OCc3cccc(F)c3)c(-c3ccc(Cl)cc3)nc2c1`: the “hERG current change (%, negative = inhibition) at 1uM” value was 3.29%.
To `O=C(Nc1nnc(C23CC4CC(CC(C4)C2)C3)s1)c1ccco1` belongs 13.4%; to `O=C(NCc1ccccc1)C1CC(=O)N(C2CCCCCC2)C1` (stereo not drawn), 10.7%.
The same measure for `Cc1nc(-c2ccc3c(c2)CCC(=O)N3)cs1`: 13.9%; for `CCC(C)Sc1ccc([C@@H]2[C@@H]3C(=O)N(C)C(=O)[C@@H]3[C@]3(C(=O)OC)CCCCN23)cc1OC.O=C(O)C(F)(F)F` (stereo partly drawn): -1.9%.
For the compound `CCOC(=O)c1c(/N=C/N(C)C)sc(/C=N/Nc2ccccc2)c1-c1ccccc1Cl`, the “hERG current change (%, negative = inhibition) at 1uM” value is listed as 18.7%.
As for `CC(=O)OCC(=O)[C@@]1(O)CC[C@H]2[C@@H]3C[C@H](C)C4=CC(=O)C=C[C@]4(C)[C@H]3[C@@H](O)C[C@@]21C`, the “hERG current change (%, negative = inhibition) at 1uM” value is recorded as 9.99%.
The same measure for `Cc1ccc(-c2nnc3c4ccccc4c(C)nn23)cc1S(=O)(=O)N1CCN(C)CC1`: 1.86%.
Regarding `Cc1cc(C)n(CC(=O)N/N=C/c2c[nH]c3ccccc23)n1`, the “hERG current change (%, negative = inhibition) at 1uM” value worked out at 12.7%.
In the case of `O=C1NCCN1Cc1ccccc1`, the “hERG current change (%, negative = inhibition) at 1uM” value is reported as -8.17%.
With `CC1CN(C)C(C)(C)CC1(O)c1ccccc1.Cl` (stereo not drawn), the “hERG current change (%, negative = inhibition) at 1uM” value was determined as 7.82%.
Regarding `CC1=C(C(=O)OCc2ccc3c(c2)OCO3)C(c2ccc(Cl)cc2)NC(=O)N1` (stereo not drawn), the “hERG current change (%, negative = inhibition) at 1uM” value was 7.03%.
The same measure for `Clc1ccc(CN2CCN(/N=C/c3ccco3)CC2)cc1`: 2.9%; for `CCOCC(=O)NCc1ccc2c(c1)OCO2`: 8.52%.
Turning to `N#Cc1c(N)c(C(=O)c2ccc(Br)cc2)n2c1CCC2`, the “hERG current change (%, negative = inhibition) at 1uM” value is on record as -0.946%.
For `CN(CC(=O)Nc1cccc(F)c1)C(=O)CCc1nc2sc3c(c2c(=O)[nH]1)CCCC3`, the “hERG current change (%, negative = inhibition) at 1uM” value stood at 3.83%.
Take `COc1ccc(CC(=O)Nc2ccc(S(=O)(=O)N3CCCC3)cc2)c(OC)c1`: the “hERG current change (%, negative = inhibition) at 1uM” value is given as -2.98%.
On to `CCN(CC)CCCNC(=O)C(C)n1nc(C)c2sc3ccccc3c2c1=O` (stereo not drawn), for which the “hERG current change (%, negative = inhibition) at 1uM” value was found to be 7.68%.
As to `CC(=O)Nc1nc2c(s1)C(=O)NCCC2`, the “hERG current change (%, negative = inhibition) at 1uM” value came out at 2.73%.
For `Cc1ccc(C(=O)ON=C2CCN(S(=O)(=O)c3ccccc3)CC2)cc1`, the “hERG current change (%, negative = inhibition) at 1uM” value was 15.1%.
`Cc1ccc(C)c(Cn2nnc3c(=O)[nH]c(C4CCCN(C(=O)c5ccco5)C4)nc32)c1` (stereo not drawn): the “hERG current change (%, negative = inhibition) at 1uM” value is 2.49%.
To `Nc1nc(SCC(=O)Nc2ccc(C(F)(F)F)cc2)[nH]c(=O)c1NC(=O)c1ccc(F)c(F)c1` belongs 12.4%; to `Cc1ccc(NC(=O)c2ccccc2O)cc1`, 1.39%; to `O=C(CC(=O)c1cc(Cl)ccc1O)c1ccccc1`, 11.5%.
In the case of `COc1ccc(S(=O)(=O)N2CCOCC2)cc1NC(=O)CSc1nnc(C2CC2)n1N`, the “hERG current change (%, negative = inhibition) at 1uM” value was 10.6%.
Turning to `O=C(COC(=O)c1ccc(S(=O)(=O)N2CCCCC2)cc1)NCc1ccco1`, the “hERG current change (%, negative = inhibition) at 1uM” value worked out at 13.9%.
With `CC/C(=N\Nc1ccccc1)c1c(O)n(-c2ccc(OC)cc2)c(=O)[nH]c1=O`, the “hERG current change (%, negative = inhibition) at 1uM” value turned out to be 13%.
Turning to `Cc1ccc2nc(C3CCCN3Cc3nc(CCC(C)C)no3)[nH]c2c1` (stereo not drawn), the “hERG current change (%, negative = inhibition) at 1uM” value is 15.8%.
For the compound `O=C(NN1CCCCC1)c1cccc(COc2ccc(Cl)cc2)c1`, the “hERG current change (%, negative = inhibition) at 1uM” value is recorded as 7.77%.
Turning to `CSc1ncc(Cl)c(C(=O)Nc2cccc(C)c2)n1`, the “hERG current change (%, negative = inhibition) at 1uM” value is listed as 9.58%.
Take `CCSc1c(C(=O)NC)ccc2c1C(=O)c1ccccc1C2=O`: the “hERG current change (%, negative = inhibition) at 1uM” value stood at 7.43%.
The same measure for `CCCCn1nc2cc(C(=O)NCc3ccco3)ccc2c1OCC`: -0.0403%; for `O=C(CSc1ncccn1)NCCc1ccccc1`: -17.8%.
The same measure for `CCCC[C@@H]1CN=C(N)N1CCc1cccc(F)c1`: 6.7%; for `COc1ccc(S(=O)(=O)N2CCN(C(C)C(=O)Nc3ccc(C(C)C)cc3)CC2)cc1` (stereo not drawn): -4.52%.
The same measure for `CC(=O)c1ccc(OCc2cc(C(=O)N3CCCCCCC3)no2)cc1`: -5.82%; for `Cc1c(C(=O)Nc2ccccc2)cn2c(nc3ccccc32)c1C#N`: 17.9%; for `COc1cccc(CNC(=O)C2CCN(S(=O)(=O)N3CCCCC3)CC2)c1`: -4.64%.
As to `COc1ccccc1NC(=O)c1cc(-c2ccc(C)o2)nc2ccccc12`, the “hERG current change (%, negative = inhibition) at 1uM” value is reported as -2.69%.
As for `Cc1nn(C(=O)c2ccco2)c(C)c1CN1C(=O)c2ccccc2C1=O`, the “hERG current change (%, negative = inhibition) at 1uM” value turned out to be 3.16%.
Consider `Nc1ccc(Br)cc1-c1nc2ccccc2[nH]c1=O`, for which the “hERG current change (%, negative = inhibition) at 1uM” value stood at 13.2%.
For `c1ccc(CC2CCN(C(c3cccs3)c3nnnn3C3CCCC3)CC2)cc1` (stereo not drawn), the “hERG current change (%, negative = inhibition) at 1uM” value worked out at 12.5%.
On to `CN(C(=O)COC(=O)c1nc(Cl)ccc1Cl)C1CCS(=O)(=O)C1` (stereo not drawn), for which the “hERG current change (%, negative = inhibition) at 1uM” value was determined as 9.24%.
For the compound `Cc1ccc(NC(=O)CCCn2nc(C)c3c(C)n(-c4ccccc4)nc3c2=O)c(Cl)c1`, the “hERG current change (%, negative = inhibition) at 1uM” value was determined as 17.6%.
The same measure for `C[n+]1nc(Nc2ccccc2)sc1-c1ccc(O)cc1.[Cl-]`: 10.9%; for `O=C(COC(=O)c1cc(=O)[nH]c2ccccc12)Nc1cccc(S(=O)(=O)N2CCOCC2)c1`: 8.09%; for `Cc1nn(CC(=O)Nc2c(F)cc(F)cc2Br)c(=O)c2cccn12`: 21.6%.
To `COc1ccccc1NC(=O)c1ccc(S(=O)(=O)N(C)C)cc1` belongs 9.66%.
Consider `COc1ccc(C(=O)NC(=S)Nc2ccc(CN3CCOCC3)cc2)cc1OC`, for which the “hERG current change (%, negative = inhibition) at 1uM” value was 13.2%.
Take `CCOc1ccccc1NC(=O)c1cc(Cl)ccc1NC(=O)c1ccco1`: the “hERG current change (%, negative = inhibition) at 1uM” value stood at 10.3%.
As for `CCc1ccc(C2c3[nH]c4ccccc4c3CCN2C(=O)c2ccc(=O)n(C)n2)cc1` (stereo not drawn), the “hERG current change (%, negative = inhibition) at 1uM” value was determined as 10.6%.
The same measure for `Cc1ccc(NC2Nc3cc(C)nn3S2)c(C)c1` (stereo not drawn): 6.13%; for `COc1ccc(/C=C(/NC(=O)c2ccco2)C(=O)N2CCOCC2)cc1`: 7.7%.
For `Cc1cccc(NC(=O)c2cc(-c3ccccn3)nc3ccccc23)c1C`, the “hERG current change (%, negative = inhibition) at 1uM” value is given as 11.8%.
`COc1cccc(C2SCC(=O)N2c2ccc(Cl)cc2)c1OC` (stereo not drawn): the “hERG current change (%, negative = inhibition) at 1uM” value is on record as -0.758%.

Values taken from publication PMC4336329 (PLoS ONE, 2015).
